# Test results reported in PubChem BioAssay AID1508642 (National Center for Advancing Translational Sciences (NCATS), 2021).
# Screen size: about 43,000 compounds; about 200 (0.47%) were called active. Not shown: some 12% with an inconclusive outcome. The call rests on the fitted dose curve; in most records, active means well fitted cell-killing curve with a large enough effect; inconclusive means small, poorly fitted or top-dose-only effect, or effect the other way; inactive means flat fitted curve, though single readings scatter. Some of the results follow.
# Experiment: Cell viability qHTS assay in S16 Pmp22-F2sN cells; further: nearly all actives have a fitted effect of over 65% in size
# Settings: S16 Pmp22-F2sN Schwann cells (luciferase reporters placed in the Pmp22 gene) viability, CellTiter-Glo, 24 h; series mostly up to 57.5 µM; activity change, negative = cytotoxicity: at the top concentration
# Summary of the method: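 Luminescence from CellTiter-Glo, read by CCD camera after a 15 min room-temperature incubation, served as the viability signal. Reporter Schwann cells (S16 Pmp22-F2sN) had been treated with pin-transferred compounds for 24 h at 37C.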
# On the % scale 0 is the no-effect control and ±100 the full control effect.
row,SMILES,"activity change, negative = cytotoxicity"
1,CCCCn1c(=N)c(S(=O)(=O)c2ccc(C)cc2)cc2c(=O)n3cc(C)ccc3nc21,inactive: 14%
2,O=C(Nc1ccc(-c2nc3cc(NC(=O)c4ccc(F)cc4)ccc3o2)cc1)c1ccc(F)cc1,inactive: 3.95%
3,CCc1nn2c(=O)cc(COC(=O)c3ccc(NC(=O)CCc4ccccc4)cc3)nc2s1,inactive: -3.69%
4,Cc1c(C(=O)N2CCCC2)oc2c1-c1nn(CC(=O)NCc3ccccc3Br)cc1CC2,inactive: -8.44%
5,Cc1ccc(/C=C/c2onc(C)c2S(=O)(=O)N2CCC(C(=O)N3CCOc4ccc(C)cc43)CC2)cc1,inactive: -4%
6,COc1ccc(NC(=O)CCS(=O)(=O)c2nc(-c3ccc4c(c3)OCO4)cc(C(F)(F)F)n2)cc1,inactive: 4.59%
7,CSc1ccc(C2CC(=O)Oc3c2c(=O)n(C)c2ccccc32)cc1 (stereo not given),inactive: -2.72%
8,Cc1ccc2[nH]cc(S(=O)(=O)c3ccc(C)c(C)c3)c(=O)c2c1,inactive: -6.51%
9,Cc1ccc(F)cc1NC(=O)CCc1c(C)nn(-c2ccc(N3CCOCC3)nn2)c1C,inactive: -5.9%
10,CC1Cn2c(C(=O)NCCc3ccc(Cl)cc3)cc3cccc(c32)S1 (stereo not given),inactive: 1.45%
11,Cc1cc(=O)n(C(C)C(=O)N2CCCc3ccccc32)c2c1c(C)nn2-c1ccccc1 (stereo not given),inactive: -19.8%
12,COc1ccc(-c2cc(C(=O)Oc3ccc(C)cc3)c3cc(C)ccc3n2)cc1,inactive: -5.69%
13,Cc1nn2c(-c3ccco3)ccnc2c1-c1ccc(Br)cc1,inactive: 27.2%
14,CCOc1ccc(C(=O)c2cn(CC(=O)Nc3cccc(OC)c3)c3cc4c(cc3c2=O)OCCO4)cc1,inactive: -2.5%
15,Cc1c(C(=O)N2CCCCC2)c(S(=O)(=O)NCc2ccc(N(C)C)cc2)c(C)n1C,inactive: 17.3%
16,Cc1ccc(-c2cc(N)n(-c3ccc(C)cc3)n2)cc1,inactive: -3.25%
17,Cn1c(=O)c2c(nc(N3CCOCC3)n2Cc2cccc(Br)c2)n(C)c1=O,inactive: -11.3%
18,Cc1ccccc1CNC(=O)Cc1ccc(NC(=O)N2CCCCc3ccccc32)cc1,inactive: -20.3%
19,COc1ccc(N2CCN(C(CNC(=O)C(=O)NCc3cccnc3)c3cccnc3)CC2)cc1 (stereo not given),inactive: -11%
20,CCOc1ccc(NC(=O)C2CCN(c3nnc(C)c4c(C)n(-c5ccccc5)nc34)CC2)cc1,inactive: 9.67%
21,Cc1ccc(NC(=O)CSc2nc3c([nH]c4ccccc43)c(=O)n2-c2ccccc2)cc1Cl,inactive: -17.5%
22,Cc1ccc(-c2[nH]c3c(c2-c2c(-n4cccc4)n(C)c(=O)[nH]c2=O)c(=O)[nH]c(=O)n3C)cc1,inactive: 11.1%
23,CCOC(=O)c1c(C)oc2nc(C)nc(N3CCN(c4ccccc4F)CC3)c12,inactive: -1.29%
24,COc1ccccc1CNC(=O)C(C)n1ccc2cc(S(=O)(=O)N3CCCC3)ccc21 (stereo not given),inactive: -28.8%
25,COc1ccc(CNC(=O)c2ccc3nc(CCc4ccccc4)oc3c2)cc1,inactive: 14.7%
